In a compilation of properties of binary mixtures (doi:10.1057/9780230359512_28):
Some of these densities may be calculated back from excess volumes.

Assay: xn = mol fraction of the nth substance listed
Conditions: 101.3 kPa

CCCCCC[n+]1ccn(C)c1.O=S(=O)([N-]S(=O)(=O)C(F)(F)F)C(F)(F)F + ClCCl
x2 = 0
Conditions	mass density [kg/m3]
288.15 K	1381.1
298.15 K	1371.9

CC(C)=O + CCCCCC[n+]1ccn(C)c1.O=S(=O)([N-]S(=O)(=O)C(F)(F)F)C(F)(F)F
x1 = 1
Conditions	mass density [kg/m3]
288.15 K	795.7
293.15 K	790
298.15 K	784.3

CCCCCC[n+]1ccn(C)c1.O=S(=O)([N-]S(=O)(=O)C(F)(F)F)C(F)(F)F + CCCO
mass density [kg/m3]
Conditions	298.15 K	313.15 K	328.15 K
x2 = 0	1371.9	1358.2	1344.5
x2 = 0.0406	1366.3	1352.5	1338.9
x2 = 0.1017	–	1343.3	–
x2 = 0.1756	–	1331	1317.3
x2 = 0.2693	1326.8	1312.9	–
x2 = 0.3963	–	1282.5	–
x2 = 0.4944	1266.5	–	1238.6
x2 = 0.608	1221.5	1207.5	1193.5
x2 = 0.7013	1171.6	1157.7	–
x2 = 0.8	–	1084.6	1070.7
x2 = 0.8986	–	975.7	962.1
x2 = 0.9422	920.8	907.9	–

ClCCl + CCCCCC[n+]1ccn(C)c1.O=S(=O)([N-]S(=O)(=O)C(F)(F)F)C(F)(F)F
mass density [kg/m3]
Conditions	288.15 K	293.15 K	298.15 K
x1 = 0.0301	1381	1376.4	1371.7
x1 = 0.1024	1380.5	1375.8	1371.1
x1 = 0.1412	1380.2	1375.5	–
x1 = 0.2765	1378.9	1374.1	1369.2
x1 = 0.3243	1378.4	1373.5	1368.7
x1 = 0.4846	–	1370.9	1365.8
x1 = 0.536	1375.1	1369.8	1364.6
x1 = 0.694	1370.6	–	1359.3
x1 = 0.7854	1366.4	1360.3	1354.2
x1 = 0.8916	1357.6	1350.6	1343.6
x1 = 0.943	1350.1	–	1334.6
x1 = 1	1334.8	1325.7	1316.5

CC#N + CCCCCC[n+]1ccn(C)c1.O=S(=O)([N-]S(=O)(=O)C(F)(F)F)C(F)(F)F
x1 = 1
Conditions	mass density [kg/m3]
298.15 K	776.6
313.15 K	760.2
328.15 K	751.1

CCCO + CCCCCC[n+]1ccn(C)c1.O=S(=O)([N-]S(=O)(=O)C(F)(F)F)C(F)(F)F
x1 = 1
Conditions	mass density [kg/m3]
298.15 K	799.6
313.15 K	787.4
328.15 K	774.8

CO + CCCCCC[n+]1ccn(C)c1.O=S(=O)([N-]S(=O)(=O)C(F)(F)F)C(F)(F)F
x1 = 1
Conditions	mass density [kg/m3]
298.15 K	786.6
313.15 K	772.4

CCCCCC[n+]1ccn(C)c1.O=S(=O)([N-]S(=O)(=O)C(F)(F)F)C(F)(F)F + CC#N
mass density [kg/m3]
Conditions	298.15 K	313.15 K	328.15 K
x2 = 0	1371.9	–	1344.5
x2 = 0.0753	1364.4	1350.6	1336.9
x2 = 0.0943	1362.3	1348.6	1334.9
x2 = 0.1999	1349.9	1336	1322.2
x2 = 0.2894	–	1322.9	–
x2 = 0.3915	1318.6	1304.5	1290.3
x2 = 0.4968	1293.7	1279.3	1265
x2 = 0.6009	1260.2	1245.5	1230.9
x2 = 0.6954	1217	1202.1	1187.2
x2 = 0.8126	1133.1	1117.7	–
x2 = 0.8979	1028.2	–	996.2
x2 = 0.9493	928.7	912.5	–

CC(C)O + CCCCCC[n+]1ccn(C)c1.O=S(=O)([N-]S(=O)(=O)C(F)(F)F)C(F)(F)F
x1 = 1
Conditions	mass density [kg/m3]
298.15 K	780.9
328.15 K	753.9
